Measured values from PubChem BioAssay AID624417 (National Center for Advancing Translational Sciences (NCATS), 2012).
The whole screen tested about 410,000 compounds, of which about 6,400 (1.6%) were called active. This list was built around the results that the source calls inconclusive (neither active nor inactive); the mix of calls is not that of the screen. The call rests on the fitted dose curve; in most records, active means well fitted inhibition curve with a large enough effect; inconclusive means small, poorly fitted or top-dose-only effect; inactive means no such curve, though single readings can be large or run the other way. Potencies of inconclusive entries are left out as doubtful fits.

Each molecule was assayed against Glucagon-like peptide 1 receptor (Homo sapiens) (UniProt P43220) (assay: qHTS of GLP-1 Receptor Inverse Agonists (Inhibition Mode)). Details: HEK293 GLP-1R CRE-luciferase, luminescence, 24 h, GLP-1R form is constitutively active; series mostly up to 38.3 µM.
Sequence of UniProt P43220 (P43220 whole entry, looked up): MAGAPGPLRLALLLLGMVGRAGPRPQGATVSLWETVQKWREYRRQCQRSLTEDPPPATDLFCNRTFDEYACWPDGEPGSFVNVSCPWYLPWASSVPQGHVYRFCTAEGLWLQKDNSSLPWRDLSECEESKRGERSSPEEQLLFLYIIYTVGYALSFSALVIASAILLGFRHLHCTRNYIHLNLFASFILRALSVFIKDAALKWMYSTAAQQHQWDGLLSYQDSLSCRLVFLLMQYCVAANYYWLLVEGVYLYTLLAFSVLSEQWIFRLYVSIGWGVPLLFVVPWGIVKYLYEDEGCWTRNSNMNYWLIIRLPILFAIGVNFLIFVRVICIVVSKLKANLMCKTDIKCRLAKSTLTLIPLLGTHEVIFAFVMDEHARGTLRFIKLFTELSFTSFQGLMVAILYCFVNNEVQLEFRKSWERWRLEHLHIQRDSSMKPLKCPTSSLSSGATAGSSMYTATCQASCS
Outline: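 Readout was luciferase luminescence, measured 12 min after detection reagent at room temperature. Beforehand, GLP-1R reporter HEK293 cells had sat 12 h, then received compounds for 24 hr at 37 deg C.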
Further: nearly all actives have a fitted effect of over 55% in size.
Potency means the concentration at half of the fitted maximal effect; tags describe the fitted curve by direction and shape.

Structure (SMILES) | Potency
Cc1ccc(COC(=O)c2[nH]c3c(c2C)C(=O)CC(c2ccc(Cl)cc2)C3)cc1 (stereo not drawn) | inactive
O=C(CNC(=O)c1ccccc1O)N/N=C/c1cc(Br)ccc1OC(=O)/C=C/c1ccco1 | inconclusive [inhibitor, partial curve]
COc1cccc(CN2CCN(C(=O)c3cc(-c4cccnc4)nc4ccc(C)cc34)CC2)c1 | inconclusive [inhibitor, partial curve]
Cc1ccc(C(=O)C2CCN(CC(=O)Nc3ccc(N(C)C)cc3)CC2)cc1 | inactive
CCN(CC)CCCn1c2c(c(SCC(=O)Nc3ccc(OC(F)(F)F)cc3)nc1=O)CCC2 | active: 3.55 µM
O=C(NCCCN1CCN(CCCNC(=O)c2cccc([N+](=O)[O-])c2)CC1)c1cccc([N+](=O)[O-])c1 | inactive
CCCCn1c(-c2ccc(F)c(F)c2)nc2cc3[nH]c(=O)c(C(C)C)nc3cc21 | inconclusive [inhibitor, partial curve, poor fit]
COc1ccc(-c2nnc(Nc3ccc(OC)c(C(=O)N4CCCCC4)c3)c3ccccc23)cc1 | inconclusive [inhibitor, partial curve, poor fit]
Cc1ccc2c(c1)c(=O)c1ccccc1n2CCCC(=O)Nc1ccc(C)c(C)c1 | inconclusive [inhibitor, partial curve]
CC(C)c1ccc(NC(=S)Nc2ccc3cn[nH]c3c2)cc1 | inconclusive [inhibitor, single point]
CCCCn1nnnc1C(c1cc2ccccc2o1)N1CCN(CCN(C)C)CC1 (stereo not drawn) | inconclusive [inhibitor, partial curve, poor fit]
CCN(CC)c1ccc(S(=O)(=O)N(CC)CC)cc1NC(=O)C1CCCC1 | inconclusive [inhibitor, single point]
COc1ccc(C(C)=O)cc1CSc1nc(NCc2ccccc2)c2ccccc2n1 | inactive
COc1ccc(NC(=O)C(C)N2Cc3ccccc3C2=O)cc1OC (stereo not drawn) | inactive
CC(/C=N/Nc1nc2ccccc2[nH]1)=C\c1ccccc1 | inconclusive [inhibitor, partial curve, poor fit]
Cc1cccc(CN2C(=O)CCSc3ccc(Cl)cc32)c1 | inconclusive [inhibitor, partial curve, poor fit]
O=S(=O)(Oc1ccccc1)c1ccc(Cl)c(Cl)c1 | inconclusive [inhibitor, partial curve, poor fit]
CCOc1ccc(-n2c(=S)sc3c(=O)n(-c4ccccc4)c(SC)nc32)cc1 | inconclusive [inhibitor, partial curve]
